System: patients with moderate to severe L-DOPA-induced dyskinesia (LID) in Parkinson's disease
Test: Adverse events, Phase 2a study of NLX-112 versus placebo

## Cc1ccc(CNCC2(F)CCN(C(=O)c3ccc(F)c(Cl)c3)CC2)nc1 [NLX-112]
71/18 vs 32/9
  Number of adverse events per patient, higher than placebo group by: about 11%
89% vs 78%
  Proportion of patients experiencing an adverse event, higher than placebo group by: 11%
Full analysis set, N = 18
  AE action taken with study drug: Dose Not Changed, events m: 46
  AE action taken with study drug: Dose Not Changed, subjects n (%): 12 (67%) n (%)
  AE action taken with study drug: Dose Reduced, events m: 14
  AE action taken with study drug: Dose Reduced, subjects n (%): 4 (22%) n (%)
  AE action taken with study drug: Drug Interrupted, events m: 0
  AE action taken with study drug: Drug Interrupted, subjects n (%): 0 n (%)
  AE action taken with study drug: Not Applicable, events m: 11
  AE action taken with study drug: Not Applicable, subjects n (%): 5 (28%) n (%)
  AE causality: Possibly Related, events m: 43
  AE causality: Possibly Related, subjects n (%): 15 (83%) n (%)
  AE causality: Probably Related, events m: 4
  AE causality: Probably Related, subjects n (%): 3 (17%) n (%)
  AE causality: Unlikely Related, events m: 24
  AE causality: Unlikely Related, subjects n (%): 11 (61%) n (%)
  AE severity: Death, events m: 0
  AE severity: Death, subjects n (%): 0 n (%)
  AE severity: Life-Threatening, events m: 0
  AE severity: Life-Threatening, subjects n (%): 0 n (%)
  AE severity: Mild, events m: 45
  AE severity: Mild, subjects n (%): 14 (78%) n (%)
  AE severity: Moderate, events m: 26
  AE severity: Moderate, subjects n (%): 10 (56%) n (%)
  AE severity: Severe, events m: 0
  AE severity: Severe, subjects n (%): 0 n (%)
  Alopecia, events m: 0
  Alopecia, subjects n (%): 0 n (%)
  Any AE leading to death, events m: 0
  Any AE leading to death, subjects n (%): 0 n (%)
  Any AE leading to withdrawal from study, events m: 3
  Any AE leading to withdrawal from study, subjects n (%): 1 (5.6%) n (%)
  Any AE, events m: 71
  Any AE, subjects n (%): 16 (89%) n (%)
  Any SAE, events m: 0
  Any SAE, subjects n (%): 0 n (%)
  Apathy, events m: 1
  Apathy, subjects n (%): 1 (5.6%) n (%)
  Arthralgia, events m: 1
  Arthralgia, subjects n (%): 1 (5.6%) n (%)
  Back pain, events m: 2
  Back pain, subjects n (%): 2 (11%) n (%)
  Binocular eye movement disorder, events m: 1
  Binocular eye movement disorder, subjects n (%): 1 (5.6%) n (%)
  COVID-19, events m: 0
  COVID-19, subjects n (%): 0 n (%)
  Cardiac disorders (system organ class), events m: 1
  Cardiac disorders (system organ class), subjects n (%): 1 (5.6%) n (%)
  Cataract operation, events m: 2
  Cataract operation, subjects n (%): 1 (5.6%) n (%)
  Condition aggravated, events m: 1
  Condition aggravated, subjects n (%): 1 (5.6%) n (%)
  Depression, events m: 0
  Depression, subjects n (%): 0 n (%)
  Diarrhoea, events m: 1
  Diarrhoea, subjects n (%): 1 (5.6%) n (%)
  Dissociation, events m: 2
  Dissociation, subjects n (%): 2 (11%) n (%)
  Dizziness, events m: 2
  Dizziness, subjects n (%): 2 (11%) n (%)
  Dry eye, events m: 0
  Dry eye, subjects n (%): 0 n (%)
  Dry mouth, events m: 1
  Dry mouth, subjects n (%): 1 (5.6%) n (%)
  Dyskinesia, events m: 2
  Dyskinesia, subjects n (%): 2 (11%) n (%)
  Ear and labyrinth disorders (system organ class), events m: 3
  Ear and labyrinth disorders (system organ class), subjects n (%): 2 (11%) n (%)
  Erythema of eyelid, events m: 1
  Erythema of eyelid, subjects n (%): 1 (5.6%) n (%)
  Eye disorders (system organ class), events m: 3
  Eye disorders (system organ class), subjects n (%): 2 (11%) n (%)
  Eye pain, events m: 0
  Eye pain, subjects n (%): 0 n (%)
  Fall, events m: 3
  Fall, subjects n (%): 2 (11%) n (%)
  Fatigue, events m: 2
  Fatigue, subjects n (%): 2 (11%) n (%)
  Gastritis, events m: 1
  Gastritis, subjects n (%): 1 (5.6%) n (%)
  Gastrointestinal disorders (system organ class), events m: 10
  Gastrointestinal disorders (system organ class), subjects n (%): 7 (39%) n (%)
  General disorders and administration site conditions (system organ class), events m: 3
  General disorders and administration site conditions (system organ class), subjects n (%): 3 (17%) n (%)
  Hallucination, events m: 1
  Hallucination, subjects n (%): 1 (5.6%) n (%)
  Headache, events m: 4
  Headache, subjects n (%): 3 (17%) n (%)
  Hyperglycaemia, events m: 1
  Hyperglycaemia, subjects n (%): 1 (5.6%) n (%)
  Hypertension, events m: 0
  Hypertension, subjects n (%): 0 n (%)
  Illusion, events m: 0
  Illusion, subjects n (%): 0 n (%)
  Incorrect dose administered, events m: 1
  Incorrect dose administered, subjects n (%): 1 (5.6%) n (%)
  Inflammatory marker increased, events m: 1
  Inflammatory marker increased, subjects n (%): 1 (5.6%) n (%)
  Influenza, events m: 1
  Influenza, subjects n (%): 1 (5.6%) n (%)
  Injury, poisoning and procedural complications (system organ class), events m: 6
  Injury, poisoning and procedural complications (system organ class), subjects n (%): 3 (17%) n (%)
  Insomnia, events m: 2
  Insomnia, subjects n (%): 2 (11%) n (%)

— patent US20260263442A1, “METHOD FOR TREATING L-DOPA-INDUCED DYSKINESIA USING BEFIRADOL” (Neurolixis, Inc., priority 2023, published 2026)
